Test results from the supplement of paper PMC12217912.
Some of the results follow. Sequences were assembled here from the parent chain. Values near 0.05 are background.

B1: TEV protease; numbered along this chain (parent)
chain: MGESLFKGPRDYNPISSSICHLTNESDGHTTSLYGIGFGPFIITNKHLFRRNNGTLVVQSLHGVFKVKDTTTLQQHLVDGRDMIIIRMPKDFPPFPQKLKFREPQREERICLVTTNFQTKSMSSMVSDTSCTFPSGDGIFWKHWIQTKDGQCGSPLVSTRDGFIVGIHSASNFTNTNNYFTSVPKNFMELLTNQEAQQWVSGWRLNADSVLWGGHKVFMVKPEEPFQPVKEATQL

Variants of: B1
Assay: raw area under fraction-flipped curve 0-4 h after induction (AUC4h, not background-subtracted), DNA-recorder readout of cleavage of the substrate (dimensionless); higher = more cleavage of the substrate by the protease variant
Details: temperature: 34 °C; time window: 0-4 h after rhamnose induction
Procedure: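 In vivo DNA recorder in E. coli TOP10(DE3) ΔrhaA at 34 °C. Each TEVp single-site mutant (parent TEVp 0) is paired with a single-site variant of the 7-mer TEVs (canonical ENLYFQ|S). The substrate sits between flexible linkers in a Bxb1-sfGFP-TEVs-SsrA fusion, so cleavage stabilises Bxb1 and speeds flipping of a recombination array, read by NGS. The value is the raw area under the fraction-flipped curve over 0-4 h after rhamnose induction (AUC4h), with ≥20 reads per time point. It is not background-subtracted; inactive controls average about 0.047.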
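Also: Bxb1 expression induced with 0.2% (w/v) L-rhamnose at OD600 near 0.5, cultures sampled hourly, flipped fraction per protease–substrate barcode pair counted by paired-end Illumina sequencing.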

Row | Variant | area with substrate ENAYFQS | area with substrate ENCYFQS | area with substrate ENDYFQS | area with substrate ENEYFQS | area with substrate ENFYFQS | area with substrate ENGYFQS | area with substrate ENHYFQS | area with substrate ENKYFQS | area with substrate ENMYFQS | area with substrate ENNYFQS | area with substrate ENPYFQS | area with substrate ENQYFQS | area with substrate ENSYFQS | area with substrate ENTYFQS | area with substrate ENVYFQS | area with substrate ENYYFQS | area with substrate ENRYFQS | area with substrate ENIYFQS | area with substrate ENWYFQS
1 | D11P | 0.0642 | 0.0608 | 0.0666 | 0.0673 | 0.064 | 0.0634 | 0.068 | 0.0517 | 0.0642 | 0.0766 | 0.0628 | 0.0712 | 0.0545 | 0.0672 | 0.0559 | 0.0543 | – | – | –
2 | G28Q | 0.0611 | 0.0715 | 0.0591 | 0.0617 | – | – | 0.0536 | – | 0.092 | 0.0592 | – | 0.0579 | 0.053 | – | 0.0915 | 0.0561 | 0.0687 | – | –
3 | H29P | 0.0677 | 0.063 | 0.0552 | 0.0576 | 0.0594 | – | – | 0.057 | – | 0.0623 | 0.0643 | 0.0457 | 0.062 | – | 0.0577 | – | 0.0508 | – | –
4 | H29I | 0.0592 | 0.0689 | – | 0.0532 | – | – | – | 0.055 | – | 0.0562 | – | 0.0636 | 0.0657 | 0.054 | – | 0.0597 | – | 0.129 | 0.0593
5 | H29T | 0.0621 | 0.0756 | 0.0557 | – | 0.0751 | – | 0.029 | 0.0582 | 0.0966 | 0.0528 | – | 0.067 | 0.0773 | 0.0595 | 0.0806 | – | – | – | –
6 | H29M | 0.057 | 0.0682 | 0.0662 | 0.0533 | 0.0561 | – | 0.0546 | – | 0.0856 | 0.0629 | 0.0678 | 0.0559 | – | – | 0.0776 | 0.0561 | 0.0602 | – | –
7 | L22Y | 0.0505 | 0.0535 | 0.05 | 0.0439 | – | 0.0571 | – | 0.0473 | – | – | 0.0538 | 0.061 | 0.0537 | 0.0473 | – | – | 0.0384 | 0.0436 | 0.0334
8 | L22C | 0.0626 | 0.0645 | 0.0662 | 0.062 | 0.0543 | 0.0634 | – | 0.0583 | 0.0606 | – | 0.0621 | 0.0585 | 0.0652 | 0.043 | 0.065 | – | 0.069 | – | 0.0441
9 | L22D | 0.0473 | 0.0562 | 0.0432 | 0.0537 | 0.0446 | 0.0493 | 0.0437 | 0.0462 | 0.0528 | 0.0408 | 0.0497 | 0.052 | 0.0479 | 0.0524 | 0.0498 | 0.0524 | 0.0502 | 0.0622 | 0.0514
10 | L22S | 0.0365 | – | 0.061 | 0.0398 | – | 0.0471 | 0.0579 | 0.0424 | – | 0.0474 | – | 0.0452 | 0.0572 | 0.0593 | 0.0428 | 0.043 | 0.0599 | – | 0.0294
11 | L22H | 0.0467 | 0.0506 | 0.0436 | 0.051 | 0.0465 | 0.0399 | 0.0469 | 0.0476 | 0.0534 | 0.0292 | 0.0506 | 0.0473 | 0.0445 | 0.0484 | 0.0444 | – | 0.0394 | 0.0469 | –
12 | P9R | 0.068 | 0.0801 | 0.0561 | 0.0547 | 0.0577 | 0.066 | – | – | – | – | 0.0442 | 0.0506 | 0.0518 | 0.0481 | 0.101 | – | 0.0524 | 0.124 | 0.0489
